Results from the supplement of paper PMC12632987.
The full ranking holds about 4,500 sequences; the median of “median log2 fold change of GCK-ALFA target abundance (FLAG IP / Myc IP barcode read proportion)” is about 0.078, and the lowest 2% start at about -0.6. This is one part of the list.

B1: GBRAP_83_6942 (protein)
chain: KEEVVVAAPGDRIEEAAEIALDLQEEEGLEVVLEVLFTSEEREKVLEVLKKLIKEGFEGEILLLSLDRDKEGLEEAVEELKKKAEEEGVDVEVEGYVNEE
B2: GBRAP_128_3575 (protein)
chain: SSEATLAQARALIATIIAGDVATARAAARALVALLAAADPATAEQIVALVLAALPQLTVEKLETLADVFREARPQADPEVANLLAEIEVEALNEAVEKEE
B3: GBRAP_9_7163 (protein)
chain: LKELIDKIKEVVEDAFEEIKKVVPEEHRPVVDEERDKVLAELEKIAADPTITKEEAAERAKELLERAAEKIKAVVSPEIAKQVEAIVLTAKLEIEEIAEE
B4: GBRAP_35_5541 (protein)
chain: SSDETIVEMLVNTMEDLVLALPDVDNETFITLTEHLIRLAEDIVELKPKNLELIERAIEILERAIKIVKESDLPEETREELIKRLEELRKELEKIRKEVK
B5: GBRAP_160_4791 (protein)
chain: DERIERVARRFRESLEEALELAEGESPEERVAIFDVELGSAILELEEEGLLNDEEEEVAVEVRDELVARIAANPDLTPEELRALAEEAVERLRERLKELE
B6: GBRAP_128_3396 (protein)
chain: GQEEKVEKAKELIDEIVKSSVEEAEKLAREFAELFGTLDEESREEVAEYFESKLPELSAEKLDVVADVFREMRPKLDPYAANLMAGMEVDALNEAVEKEE
B7: GBRAP_35_5599 (protein)
chain: DTDQLAVDSLIDQIEATIAGIPEMDVDTLAAISNLLIKDAEELIKKEKNNLEALNRIAKALQALLDAIKKHHGDNATMQATAAKIQATIKEAEKVAQEIK
B8: GBRAP_52_5943 (protein)
chain: MHEKMRKLAEELLALALAGDEEGLEKLAKEIVENYSDEELLELARELGRLAKTLPVEDLDAAYRAVEVLIEELEEGGRSEELISEIEGIMARAMYERELA
B9: GBRAP_80_6813 (protein)
chain: MEEEIEKNLKEIAELDEELAKKVKEIVELARELGVPEEYIARFVKAVLELAKLDLEKANKLVEETLKKIKEAYAKGDQEDALATIVDAESEALLEVEELE
B10: GBRAP_74_6527 (protein)
chain: DAARLAALREAAEAGDVEAAVALAREIIATGSLAAIEEAARILVAFVERHRDSLTKEELLAVSDTLAELADRLMELGGDSETVIAVAQAAVELEKAALAL
B11: GBRAP_52_6075 (protein)
chain: SMEKIEEVANKIYEAIKEGNKEKALELLKEAIKNFSLEEITEILKLTAEKVASLGDEAHELFVDILDEGEDLLLEAGISEDDALLIVGDAEAALAKAVAA
B12: GBRAP_9_7121 (protein)
chain: NPELIKKMAEVAKEMVEDIAEAVPEVTEEQKEEFLKRIEKLEKELLANKNATPEEAAKAFKKLVKEIRDEVKAIVDPELAKIVDAIALTAEEEIEEIVEE
B13: GBRAP_48_5831 (protein)
chain: MKLDLEKLEKLVEETVEEMKEIYEEAKKEGLSDEDILKMIKAELGDLALELEEAGYEKAADWLLEKENRDALAEKLLELFKEGKYEEAKKYLLEELLKAE
B14: GBRAP_160_4677 (protein)
chain: MEEKEKLLKEIREILEEAVEMMEGESLEERVAIAEVAGGDIILLLEESPIVTDEVVDYADEIMDEFVERIRENPELTREELRELAEEALKKIEEEIEKNS
B15: GBRAP_160_4383 (protein)
chain: EEELEKLIEEIKELRKEFEEEAKNLNSEETRILAIGVLSEIAALVWENEAVSEETKDKIAEIIDEAIEKIKESKNANPEEIVEITKEAIDEIIKLIEKEK
B16: GBRAP_78_6733 (protein)
chain: EVEEELEKAIELLEKALKLALGRVSNEVIAELVEALSEVEEALELLEEGGEKEEIIEEIEEAIEHLKEALKLLPESEKEIRELVKKAIEELKRALEEVKK
B17: GBRAP_83_6888 (protein)
chain: AEEIVVGATADHVEAAVAAAIDLAREEGYRVVLDLAVTPEAVPRLLAALARAAAAGVRLELEVTVVAPTREEAEATAAEIRAAAEALGAASSLRVETEVV
B18: GBRAP_128_3573 (protein)
chain: SMEEKLKEAEELIETIINSDLETAREAAEKLVALIGESDEETREKIVELVLKALPKLTKEKLLVLADVLREKRPELDPLAAEYAADIEVAALNEAEELEE
B19: GBRAP_166_4897 (protein)
chain: STAEAIARIEALAEETIARIAELTPEELLAAFVEMAEIVEEAGATPELIAAAAKAFARVARAAVAAGRDWDEVETLILGAVGYNEKLLDAVEAELAAARA

Each binder was assayed against GABARAP, O95166 (assay: median log2 fold change of GCK-ALFA target abundance (FLAG IP / Myc IP barcode read proportion) (log2 ratio); each designed protein is fused to an ALFA-tag nanobody in HEK293 cells to bring the named protein to FLAG-tagged glucokinase (GCK); Myc marks an untargeted standard; higher = target protein stabilised (more abundant)). Conditions: target protein: 3xFLAG-MCP-GCK-ALFA reporter; HEK293 landing pad (RPLP).
Chain of GABARAP, O95166 (O95166 whole entry, the tested form may be a part): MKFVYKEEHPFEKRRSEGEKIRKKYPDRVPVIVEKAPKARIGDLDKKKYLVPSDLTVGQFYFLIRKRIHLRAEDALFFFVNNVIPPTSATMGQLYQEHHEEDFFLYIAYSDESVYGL
Outline: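 Binders fused to an ALFA nanobody were recombined as a library into HEK293 landing-pad cells, which were induced with 2 μg mL^−1 doxycycline and then transfected to express a FLAG-tagged target and a Myc-tagged standard. After 48 h, circular RNA barcodes recovered by anti-FLAG and anti-Myc immunoprecipitation of lysates were reverse transcribed, amplified and sequenced. Each binder's target abundance is the median log2 ratio of FLAG to Myc barcode read proportions, from barcodes present at ≥10^−7 in both replicates, binders carrying ≥3 barcodes per replicate, a 10^−6 pseudocount and pooled replicates.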
In the case of B1, the “median log2 fold change” value is reported as -0.0326. In the case of B2, the “median log2 fold change” value is reported as 0.0727. B3 was tested, and the “median log2 fold change” value was 0.154. In the case of B4, the “median log2 fold change” value is reported as -0.12. In the case of B5, the “median log2 fold change” value is reported as -0.0265. B6 was tested, and the “median log2 fold change” value was -0.0209. In the case of B7, the “median log2 fold change” value is reported as 0.16. In the case of B8, the “median log2 fold change” value is reported as -0.0198. B9 was tested, and the “median log2 fold change” value was 0.24. In the case of B10, the “median log2 fold change” value is reported as 0.122. With B11 the “median log2 fold change” value was -0.583. In the case of B12, the “median log2 fold change” value is reported as 0.0132. With B13 the “median log2 fold change” value was 0.142. With B14 the “median log2 fold change” value was -0.212. In the case of B15, the “median log2 fold change” value is reported as -0.167. With B16 the “median log2 fold change” value was -0.332. B17 was tested, and the “median log2 fold change” value was -0.0788. For B18, the “median log2 fold change” value was 0.271. For B19, the “median log2 fold change” value was 0.179.
